# Measured values from PMC4336329 (PLoS ONE, 2015).
# The campaign covered roughly 310,000 compounds. About 14,000 (4.5%) showed an effect of 50% or more. The effect is printed as a negative number. Some of the results follow.
# Target: human ether-à-go-go-related gene (hERG) potassium channel (human, UniProt Q12809)
# Assay: primary screen, population patch clamp on CHO cells stably expressing hERG
# 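Also: peak tail current of the secondary pulse compared with the same well before compound.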
# Chain of human ether-à-go-go-related gene (hERG) potassium channel (Q12809 whole entry, looked up): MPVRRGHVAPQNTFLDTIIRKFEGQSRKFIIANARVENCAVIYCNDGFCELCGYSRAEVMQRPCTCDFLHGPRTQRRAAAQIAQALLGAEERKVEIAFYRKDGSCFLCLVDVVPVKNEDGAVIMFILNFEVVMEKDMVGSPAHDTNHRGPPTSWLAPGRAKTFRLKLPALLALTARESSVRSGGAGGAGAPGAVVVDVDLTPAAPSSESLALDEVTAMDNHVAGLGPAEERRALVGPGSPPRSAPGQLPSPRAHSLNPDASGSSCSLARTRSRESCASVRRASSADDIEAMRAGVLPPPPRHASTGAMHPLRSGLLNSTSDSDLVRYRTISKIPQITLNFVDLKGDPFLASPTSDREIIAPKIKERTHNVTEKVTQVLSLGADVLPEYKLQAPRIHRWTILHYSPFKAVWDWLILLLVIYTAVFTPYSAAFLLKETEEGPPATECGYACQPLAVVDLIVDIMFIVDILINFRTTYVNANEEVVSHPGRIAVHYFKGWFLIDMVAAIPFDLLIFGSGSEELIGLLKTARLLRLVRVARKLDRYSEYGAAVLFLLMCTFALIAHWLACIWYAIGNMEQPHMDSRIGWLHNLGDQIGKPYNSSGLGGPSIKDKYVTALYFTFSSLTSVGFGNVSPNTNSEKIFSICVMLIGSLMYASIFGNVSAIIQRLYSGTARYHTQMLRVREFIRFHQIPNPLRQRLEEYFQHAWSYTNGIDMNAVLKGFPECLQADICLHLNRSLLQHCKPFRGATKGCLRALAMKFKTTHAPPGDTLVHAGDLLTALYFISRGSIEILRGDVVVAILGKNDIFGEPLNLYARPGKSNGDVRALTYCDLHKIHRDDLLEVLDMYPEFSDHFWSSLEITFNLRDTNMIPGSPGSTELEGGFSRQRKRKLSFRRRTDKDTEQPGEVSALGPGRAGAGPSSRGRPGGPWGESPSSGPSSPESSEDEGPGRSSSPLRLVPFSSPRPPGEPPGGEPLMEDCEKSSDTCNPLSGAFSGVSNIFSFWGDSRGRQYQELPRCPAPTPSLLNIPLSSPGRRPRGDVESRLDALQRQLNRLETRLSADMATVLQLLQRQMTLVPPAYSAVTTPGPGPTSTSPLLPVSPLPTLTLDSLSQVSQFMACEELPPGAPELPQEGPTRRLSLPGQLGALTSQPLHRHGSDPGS
row,SMILES,"hERG current change (%, negative = inhibition) at 10uM"
1,CC(C)c1ccc(NC(=O)C2CCCN2S(=O)(=O)c2ccccc2F)cc1 (stereo not drawn),-20.5%
2,Cc1ccc(-n2c(CNc3cccc(Cl)c3)n[nH]c2=S)cc1,15.4%
3,O=C(CCCC(=O)OCC(Cl)=C(Cl)Cl)Nc1cccc2ccccc12,12.4%
4,COc1ccc(N(CC(=O)NCc2ccco2)S(C)(=O)=O)cc1,4.49%
5,CCCCN(CCCC)S(=O)(=O)c1ccc(NC(=O)c2cccs2)cc1,13%
6,CC(C)c1ccc(C(=O)N2CCCN(C(=O)c3ccc(C(C)C)cc3)CC2)cc1,-32.9%
7,N#C/C(=C(/O)COC(=O)CSc1ccc2ccccc2c1)c1nc2ccccc2[nH]1,0.289%
8,COc1cccc(NC(=S)N(CCN(C)C)C(C)c2cccnc2)c1 (stereo not drawn),-4.56%
9,CCOC(=O)c1[nH]c(C)c(C(=O)N2CCN(c3ccccc3)CC2)c1C,-13.2%
10,COCCNC(=O)c1cc(-c2ccccc2)n(CC2CC(c3ccc(OC)cc3)=NO2)n1 (stereo not drawn),-10.7%
11,COc1ccc(NC(=O)CO/N=C/C(=O)Nc2ccccc2C)c([N+](=O)[O-])c1,-14.7%
12,CC(C)CC1=C/C(=C/c2ccc(-c3ccccc3)o2)C(=O)O1,3.19%
13,CCc1nnc(NS(=O)(=O)c2ccc(N/C=C\C(=O)c3ccc(C)cc3)cc2)s1,5.71%
14,CC(C)(C)c1nn2cnnc2n(/N=C/c2ccccc2)c1=O,0.246%
15,CC(Cc1ccccc1)C(=O)NCc1ccccn1 (stereo not drawn),7.34%
16,CCOc1nc(-c2ccccc2)ccc1-c1noc(-c2ccco2)n1,10.3%
17,O=C(OCC(=O)N1CCc2ccccc21)c1c2c(nc3ccccc13)CCCC2,1.29%
18,CCOCCCN(C(=O)c1snc(C(N)=O)c1N)C(C(=O)NC1CCCC1)c1ccc(OC)cc1 (stereo not drawn),-60.5%
19,CCOC(=O)C1CCN(C(=O)/C=C/c2ccccc2)CC1,-16.8%
20,COc1ccccc1Oc1coc2c(CN3CCN(C)CC3)c(O)ccc2c1=O,-23.2%
21,Cc1nc(-c2cccc(C(F)(F)F)c2)sc1C(=O)O,29.2%
22,Cc1ccc(S(=O)(=O)N2CCCC2)cc1[N+](=O)[O-],-9.28%
23,COc1ccc(OC)c(S(=O)(=O)NCCCN2CCCC2=O)c1,8%
24,C#CCOCCOCCOCCNc1nc(N2CCN(C(=O)C([C@@H](C)CC)n3cc(C(N)CC(C)C)nn3)CC2)nc(N2CCN(C(=O)[C@H](CCCCN)n3cc(C(N)COC(=O)C(F)(F)F)nn3)CC2)n1.Cl (stereo partly drawn),-0.506%
